Reference: paper PMC12136788
Some of the results follow.

T1: UNK ZnF1-3 (human, UniProt Q9C0B0 31-174)
T1 sequence: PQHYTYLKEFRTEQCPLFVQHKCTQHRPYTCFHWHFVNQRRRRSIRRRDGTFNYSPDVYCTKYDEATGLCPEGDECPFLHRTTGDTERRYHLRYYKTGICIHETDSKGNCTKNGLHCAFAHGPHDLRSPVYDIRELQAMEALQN

B1: chr2:168997265:168997266:-_ENSG00000198648_ENST00000355999|hu_hu|FALSE|FALSE (ssRNA)
RNA: GGGAGUUCUACAGUCCGACGAUCUUUAUUUCGGGUAACAUCACCCCCUGUUGCUAGGAACGCACUUACCCCAAAAUCUGCUAUUUGUACUGAACCAUCCUCACCCAGAAGAAUAUUACCAGCUUUCAAAUCCCUGUGAAUCUGCAACAGAGGAUUGAGCAUCA
B2: chr1:109605286:109605287:-_ENSG00000197780_ENST00000461096|hu_mus|hu_hu_hu_mus_True|1_78 (ssRNA)
RNA: GGGAGUUCUACAGUCCGACGAUCAAGUUUCAGAGUAACAUUCAGUAACCUCUUUAACAAUUGUAAUCCUUAUUAUAAGCUAAGCAGAAUAAUAAUUUAAUACCGUAAGUGAACUACACACAAAGCCUGAACCGCGAAACUACACAACAGAGGAUUGAGCAUCA
B3: chr9:14812383:14812384:-_ENSMUSG00000031934_ENSMUST00000164273|mus_mus|mus_mus_mus_hu_True|28_78 (ssRNA)
RNA: GGGAGUUCUACAGUCCGACGAUCAUAGCCCAGGUAGAUACACGCUAACAGUAUAAUCACAAAUGUCAGCAGGCGGCAGCUAAUGUACUUGAUGAUUAAAUUAUUAGAGUUCUUUUUUGUCUUCAAGUACUGCUCCACAAUUGGCAACAGAGGAUUGAGCAUCA
B4: chr5:40767622:40767623:-_ENSG00000132356_ENST00000397128|hu_mus|hu_hu_hu_mus_False|48_48 (ssRNA)
RNA: GGGAGUUCUACAGUCCGACGAUCAUCUUUUAUUGCGGCCCUCUUCAUGGGAUCCACCUGCAGCAUAUGUUUCAAAAGGCUGAUUACAGAAGGAUUUAAGUACUGAGGGGUAUAAAAGAUCCCAUCACAUAUCUUCUUAAAAAGCAACAGAGGAUUGAGCAUCA
B5: chr7:26081458:26081459:-_ENSMUSG00000005447_ENSMUST00000140093|mus_mus|FALSE|FALSE (ssRNA)
RNA: GGGAGUUCUACAGUCCGACGAUCACCACCAAUGCCAAAGUUAAGUGCAUGCAGAGGUGAGAAGAGCUCCCGCCAGAUCUGGGGUCAAGAAAUGACGUAGACACUAGCCACCACCCUCUGUCCAGGCCAUUAUGGACAUAUCAUCAACAGAGGAUUGAGCAUCA
B6: chr17:73195629:73195630:+_ENSMUSG00000039770_ENSMUST00000045174|mus_mus|FALSE|FALSE (ssRNA)
RNA: GGGAGUUCUACAGUCCGACGAUCACGGGUACCACCGAUAUGGUCAAGAAAGAUUCUGCCCAUUUUGACAACUGAAGUUCUAAAAAGCGGCGUGCUGGGAAUCGGCGCUGCCAGCAGCUCUUCGCUCCUCAGCUGGGUCGAAGCCAACAGAGGAUUGAGCAUCA
B7: chrX:98480239:98480240:+_ENSMUSG00000079487_ENSMUST00000087948|mus_mus|FALSE|FALSE (ssRNA)
RNA: GGGAGUUCUACAGUCCGACGAUCUGCACAGCGAAUCAGGUCUUCUAGGAGCAAACAUUGACGGGCGAUGAGGAUAGCAACAAAAGUAGCCAAGGAAUCAUGAAAAGACAAAUCACUGACGUCUACGUUGCACAGGAGAUCAUUCAACAGAGGAUUGAGCAUCA
B8: 172822409_172823029_687_CDS_ENSG00000128708_ENST00000264108|human|control|control (ssRNA)
RNA: GGGAGUUCUACAGUCCGACGAUCACGUGGCCGGGUUUUGUCUGGGUACACAUAGUAAUUAUAGACUGUCAUGUAGCCUACGGUCGCAAAGAGCGUAGCUCCAUCCUUAUUAUACUUCUCAAAUACUAGAAAGUAGUGCCAUCUCAACAGAGGAUUGAGCAUCA
B9: chr16:94690093:94690094:+_ENSMUSG00000040785_ENSMUST00000117648|mus_hu|mus_mus_mus_hu_True|78_88 (ssRNA)
RNA: GGGAGUUCUACAGUCCGACGAUCGGGCUGGGAUGACGGACACACAGAUCUUCCCAGGGUAAAAAAAAGUCUUAGUCGAUACUAAUUAAAAAGUGUUAAUGAUUUUUGAAAAUCAGAUUACAUCUAUAAAAGAUGAAAAGCAAACAACAGAGGAUUGAGCAUCA
B10: chr7:54825262:54825263:-_ENSG00000132432_ENST00000352861|hu_hu|hu_hu_hu_mus_False|18_78 (ssRNA)
RNA: GGGAGUUCUACAGUCCGACGAUCCUGCCGGCUGGGCUCCACAAACUGCAUUACCUGCAUGACUGCCGUUGGAUGGCGGAUUGAGAGCGUAGAGACACGUAGCUCAGGAGAGAACCGGAUGGAGGCCAACCGGAAGCUGGCAACCAACAGAGGAUUGAGCAUCA
B11: 3802659_3802779_390_3pUTR_ENSMUSG00000040351_ENSMUST00000043551|mouse|control|control (ssRNA)
RNA: GGGAGUUCUACAGUCCGACGAUCUGUCGCGGCCACCUGGCUCUCGCGCCGAGCGGGUGACCUCUCGGGUCCACUCGGCGCCCCACCCACCCGCCGGCGGCGGCGGCUGCGGGAGCCGGAGGAUGCGCGCUGGAGGCCCGCGGGCAACAGAGGAUUGAGCAUCA
B12: chr9:72849539:72849540:+_ENSMUSG00000034563_ENSMUST00000085350|mus_hu|FALSE|FALSE (ssRNA)
RNA: GGGAGUUCUACAGUCCGACGAUCAUUUCCAAUUUCUUCUAACUUAGGUGGCUCAAGGGUAACAAUAUCAGAAUCAUCACUGGCAGUUCCAAUAUAGAUACUGUCUUCGGGUAUCUUUUGUUCCUCUGCCUCAAUUGUUGAGCUCAACAGAGGAUUGAGCAUCA
B13: chr11:251552:251553:+_ENSG00000185627_ENST00000382671|hu_mus|FALSE|FALSE (ssRNA)
RNA: GGGAGUUCUACAGUCCGACGAUCGGCACUUUUGGCAAUUUCUUCAAAAGUGAGUUGUCUGUGGUUGGCAGGCCGUGUGAAAGUCAUCUCCAUAAGGCACAACAGCUGGAUCUUCCUCAGAAGCUGGGCUUCGUUGGCUGCUAACAACAGAGGAUUGAGCAUCA
B14: chr9:139297273:139297274:-_ENSG00000165689_ENST00000371725|hu_hu|motif|central (ssRNA)
RNA: GGGAGUUCUACAGUCCGACGAUCAACACCCAGGGGUCCUCAAGAGUCUUCCUCCUCGUCUUUAACUUCAGAAAUUCUGUCGGUAGAUUUAAGGAUUUCGGCAACAAGAUUCAGUGUCUCAGCUCCGGAAACCAGUUGCUUGAUCAACAGAGGAUUGAGCAUCA
B15: chr5:111654635:111654636:+_ENSMUSG00000033209_ENSMUST00000156290|mus_hu|FALSE|FALSE (ssRNA)
RNA: GGGAGUUCUACAGUCCGACGAUCCAGACUUCCCAGCUCUCCAUAGGCCUGGGCUUUAUUGAAGGCCUCUCCAAGUUCAUGAGCAACCACGAGCCUCUUUUCAAAGCACACAAGGGCUUGCUGCAAGCUCCCCAUUGCCCUGUGCAACAGAGGAUUGAGCAUCA
B16: 108150678_108154337_475_3pUTR_ENSG00000110851_ENST00000228437|human|control|control (ssRNA)
RNA: GGGAGUUCUACAGUCCGACGAUCAUUGCUCACAGAGGAUGAAGUCAGCUGCUCCAUCCCCACUGGACUCAGGUUCAUUUCAUUCAUCCUGUGAUGCAUCGGCUUGGGGCCAAAUAUCAGAGAAAGGAGCGCUCGGGUGGUGGGCAACAGAGGAUUGAGCAUCA
B17: chr4:95690885:95690886:+_ENSMUSG00000028572_ENSMUST00000156910|mus_mus|mus_mus_mus_hu_False|18_108 (ssRNA)
RNA: GGGAGUUCUACAGUCCGACGAUCUUUAUUUUUAGAAAAAUACCAUGCUAAAAUAUUUUCAAAGGCUUAUUUUAUUUUACCAGAAGUCACAGGCAAGCAGACACUACAAGAAUAUAUAAAUACAAACCUCAACAAUAUAACUGUCAACAGAGGAUUGAGCAUCA
B18: chr7:63240916:63240917:-_ENSMUSG00000047037_ENSMUST00000052204|mus_hu|FALSE|FALSE (ssRNA)
RNA: GGGAGUUCUACAGUCCGACGAUCUAGCAGGCACCCCAACUUGCCCAAGAUGUUGAGCUUUUCCUUCAGGAGAUAGGAAGCUAAAAUGGACCCGAACGGUACUCCAAGGGCGCCCAGGGGGGUUACCAGGACCGUGGGGACCGCCAACAGAGGAUUGAGCAUCA
B19: chr22:32879901:32879902:+_ENSG00000100225_ENST00000397426|hu_mus|hu_hu_hu_mus_False|48_48 (ssRNA)
RNA: GGGAGUUCUACAGUCCGACGAUCCUCUUCCAUACUCAUGGCAUCCUGAAUUGACUCAGCUUCAACAUUUUGACUAGGCCCUUCCAUACUGUCGUCAGUCCAGGCAUCAAAUGGGGUGGCCUGUCCUUGGGAUGAAUCAGUCCCCAACAGAGGAUUGAGCAUCA
B20: chr2:181367561:181367562:+_ENSMUSG00000002455_ENSMUST00000002529|mus_mus|FALSE|FALSE (ssRNA)
RNA: GGGAGUUCUACAGUCCGACGAUCAACACGCUUCUUUGCUCGAAUGUCUGUUUCUAGCUCUGCUGCUCUGAUGUAAAUCCUAACAGACUGCGGGAGAUGACGGACAGCUUGUGCCACCACAGCCUUGGCUGUGUCCCCAGGCUGCAACAGAGGAUUGAGCAUCA
B21: chr2:32445735:32445736:+_ENSG00000152683_ENST00000406369|hu_hu|FALSE|FALSE (ssRNA)
RNA: GGGAGUUCUACAGUCCGACGAUCUCAAUAUUCCUUAUAAAAAUAAGUUAGAGUCUAUCAUGGUCUUGGUUGUCCAAUUCUAUUAUUAGUUCCAUAUCUACUUGGUAUAUUUGUAAAACCAGUCCUCAAUCCUUGAGUUGCUCCCAACAGAGGAUUGAGCAUCA
B22: chr2:171811166:171811167:+_ENSG00000115806_ENST00000234160|hu_hu|FALSE|FALSE (ssRNA)
RNA: GGGAGUUCUACAGUCCGACGAUCUCCUUCCUCAAAUGGGCGUGUAGGUAUUCGAUGCAAAUAACCAUAUCCAAUGCCACAUCCUAGGCUGCCUUCUCCACCCCAUGCAGAAUUUGGUGUAAUAAUCACUUCUCGACAGUUAUCCAACAGAGGAUUGAGCAUCA

Target: T1, UNK ZnF1-3
Test: nsRBNS (natural sequence RNA bind-n-seq); RBNS binding buffer (assumed for nsRBNS): 25 mM Tris pH 7.5, 150 mM KCl, 3 mM MgCl2, 0.01% Triton X-100, 500 ug/ml BSA, 20 U/ml SUPERase-In, 4 C; UNK is unkempt and MSI1 is Musashi-1; names of the RNAs are library labels; protein concentration not given here; high values mean tight binding

Binder	binding signal
B1	1.09 enrichment R
B2	0.661 enrichment R
B3	1.64 enrichment R
B4	1.68 enrichment R
B5	1.78 enrichment R
B6	0.75 enrichment R
B7	1.42 enrichment R
B8	0.725 enrichment R
B9	2.24 enrichment R
B10	0.99 enrichment R
B11	0.986 enrichment R
B12	0.714 enrichment R
B13	0.739 enrichment R
B14	1.04 enrichment R
B15	1.14 enrichment R
B16	1.48 enrichment R
B17	1.95 enrichment R
B18	1.15 enrichment R
B19	0.967 enrichment R
B20	0.555 enrichment R
B21	1.04 enrichment R
B22	1.03 enrichment R
